# Test results as given in PubChem BioAssay AID2147 (National Center for Advancing Translational Sciences (NCATS), 2009).
# “And” between values parts separate entries of the source, which are not always exact repeats. Equal values may be shown once. Among all 230,000 compounds or so, about 3,600 (1.6%) were called active. Inconclusive results, whose numbers are uncertain, are shown with a selection of clear calls. Calls follow the shape of the dose curve; as a rule, active = well fitted inhibition curve with a large enough effect (not every such curve was filed as active); inconclusive = small, poorly fitted or top-dose-only effect, or another doubt; inactive = no such curve, though single readings can be large or run the other way. Where the call is inconclusive, the potency comes from a doubtful curve fit.
# Molecular target: Lysine-specific demethylase 4E (Homo sapiens) (UniProt B2RXH2)
# Sequence of UniProt B2RXH2 (B2RXH2 whole entry, looked up, the tested form may be a part): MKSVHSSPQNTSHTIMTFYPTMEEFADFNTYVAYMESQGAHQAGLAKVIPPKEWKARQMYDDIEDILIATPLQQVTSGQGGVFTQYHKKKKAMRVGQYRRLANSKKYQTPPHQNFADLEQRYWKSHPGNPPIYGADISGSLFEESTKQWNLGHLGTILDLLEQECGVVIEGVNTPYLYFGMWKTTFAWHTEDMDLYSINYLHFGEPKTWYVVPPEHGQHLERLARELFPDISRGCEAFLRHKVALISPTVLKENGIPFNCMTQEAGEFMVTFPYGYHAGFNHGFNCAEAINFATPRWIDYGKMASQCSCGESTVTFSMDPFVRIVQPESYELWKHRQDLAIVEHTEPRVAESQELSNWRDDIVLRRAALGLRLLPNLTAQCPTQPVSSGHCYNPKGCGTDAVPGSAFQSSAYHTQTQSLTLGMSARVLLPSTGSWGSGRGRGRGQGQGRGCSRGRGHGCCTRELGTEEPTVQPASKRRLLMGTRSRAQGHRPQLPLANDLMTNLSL
# Assay: qHTS Assay for Inhibitors of Human Jumonji Domain Containing 2E (JMJD2E)
# Details: JMJD2E catalytic domain, FDH-coupled NADH fluorescence (FDH is formaldehyde dehydrogenase); series mostly up to 57.1 µM; activity change, negative = inhibition: at the top concentration
# Also: nearly all actives have a fitted effect of over 50% in size.
# 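For activity change, negative = inhibition in this document: 0% = wells with enzyme and -100% = buffer wells without enzyme.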
# Potency is read from the fitted curve at half-maximal effect; tags tell the direction and shape of the fitted curve.
Compound,Potency,"activity change, negative = inhibition"
CN(C)CCNc1oc(-c2cccc(Cl)c2)nc1C#N,"inconclusive: 12.6 µM [inhibitor, partial curve]",
CCOC(=O)c1c(NC(=O)c2ccn(CC)n2)sc2c1CCCC2,"inconclusive: 31.6 µM [inhibitor, partial curve]",
O=C(c1cccc2ccccc12)N1CCN(CC2CC=CCC2)CC1 (stereo not given),"inconclusive: 39.8 µM [inhibitor, single point]",
O=C(NC1CCCCCC1)c1cc(=O)[nH]c2ccc(S(=O)(=O)N3CCOCC3)cc12,"inconclusive: 39.8 µM [inhibitor, single point]",
c1cc(-c2nnc3sc(C4CCCCC4)nn23)ccn1,,inactive: 4.13%
COC(=O)c1c(NC(=O)c2ccccc2)sc(Cc2ccccc2)c1C,"inconclusive: 25.1 µM [inhibitor, partial curve]",
Cc1cc(C)nc(NC(=O)c2cnc3sccn3c2=O)n1,"inconclusive: 22.4 µM [inhibitor, partial curve]",
COC(=O)[C@H](Cc1ccccc1)NC(=O)O[C@@H]1C(=O)c2ccc(OC)cc2O[C@H]1c1cccc(C(F)(F)F)c1,,inactive: 4.45%
COc1ccc(C2C(C(=O)N3CCOCC3)=C(C)NC3=C2C(=O)CC(C)(C)C3)cc1O (stereo not given),"inconclusive: 31.6 µM [inhibitor, single point]",
CCN(CC)Cc1c(O)c(Cl)cc2c3c(c(=O)oc12)CCCC3,"inconclusive: 35.5 µM [inhibitor, partial curve]",
COc1cc2ccccc2cc1C(=O)NCC(c1cccs1)N(C)C (stereo not given),"inconclusive: 35.5 µM [inhibitor, partial curve]",
Cc1ccc(-c2nc3cccnc3s2)cc1NS(=O)(=O)c1cccs1,"inconclusive: 28.2 µM [inhibitor, single point]",
Cc1cc(C)nc(NC(=O)c2cc(-c3ccc(C)s3)nc3ccccc23)c1,"inconclusive: 22.4 µM [inhibitor, partial curve]",
Oc1ccc(CN2CCCCC2)nc1-c1ccccc1,"inconclusive: 31.6 µM [inhibitor, partial curve]",
COc1cc(OC)c(OC)cc1/C=N/n1c(-c2n[nH]c3c2CCC3)n[nH]c1=S,"inconclusive: 28.2 µM [inhibitor, single point]",
O=c1cc(N2CCc3ccccc3C2)[nH]c(=O)n1-c1ccc(Br)cc1,"inconclusive: 39.8 µM [inhibitor, single point]",
COC(=O)C1C2CC3c4[nH]c5cc(OC)ccc5c4CCN3CC2CC(OC(=O)c2cc(OC)c(OC)c(OC)c2)C1OC (stereo not given),active: 20 µM,
O=C(COC(=O)c1ccc(O)cc1)Nc1ccc(Cl)cc1,,inactive: -0.124%
CC[n+]1ccccc1/C=C/c1ccc(N(C)C)cc1,,inactive: -13%
Cc1ccc(CNC(=O)CCc2nnc(Cc3ccc(-c4ccccc4)cc3)o2)o1,,inactive: -0.287%
c1cnc2c(c1)ccc1cccnc12,active: 251 nM and active: 25.1 µM,
CC(=O)Nc1c(-c2ccccc2)nc2ncccn12,"inconclusive: 31.6 µM [inhibitor, partial curve]",
CC1CN(C(=O)c2cc3c(=O)n4ccccc4nc3s2)CC(C)O1 (stereo not given),"inconclusive: 31.6 µM [inhibitor, partial curve]",

Compound,Potency,"activity change, negative = inhibition"
COc1ccc(C2=NN(S(C)(=O)=O)C(c3cccs3)C2)cc1OC (stereo not given),"inconclusive: 31.6 µM [inhibitor, partial curve]",
O=S(=O)(c1cccc(-c2n[nH]c(=S)n2Cc2ccccc2)c1)N1CCOCC1,,inactive: -12%
COC(=O)N1C2CC(=O)O[C@@H]3c4cc5c(cc4[C@]1(C)[C@@]3(Br)c1ccccc12)OCO5,"inconclusive: 6.31 µM [inhibitor, single point]",
CCOc1ccc(-n2c(C)cc(/C=N/Nc3nc(C)cc(=O)[nH]3)c2C)cc1,"inconclusive: 31.6 µM [inhibitor, single point]",
CCOC(=O)C1(Cc2ccccc2C)CCCN(Cc2cc(OC)c(O)c(OC)c2)C1 (stereo not given),,inactive: -7.91%
CCOc1ccc(C2=Nn3c(nnc3-c3ccccc3OC)SC2)cc1,,inactive: 5.15%
CCOc1ccc2[nH]c(SCC(=O)OC)c([N+](=O)[O-])c2c1,"inconclusive: 25.1 µM [inhibitor, single point]",
CCc1cc2c(=O)c(-n3cnc4ccccc43)coc2cc1O,"inconclusive: 31.6 µM [inhibitor, partial curve]",
COc1ccccc1N=Nc1nc(-c2ccccc2)c(-c2ccccc2)[nH]1,,inactive: 7.1%
COc1ccc2nc3ccccc3nc2c1N,"inconclusive: 3.16 µM [inhibitor, full curve]",
COc1ccc(Cl)cc1C(=O)Nc1ccc(NC(=O)c2ccco2)cc1,"inconclusive: 35.5 µM [inhibitor, single point]",
O=C(Nc1ccccc1N1CCN(C(=O)c2ccc(Cl)cc2)CC1)c1cc(Br)ccc1Cl,"inconclusive: 25.1 µM [inhibitor, single point]",
Cc1noc(NS(=O)(=O)c2ccc(NC(=O)Nc3ccc(Cl)c(Cl)c3)cc2)c1C,,inactive: 4.01%
Cc1cc(C)n(CC(=O)n2c3c(c4ccccc42)CCCC3)n1,,inactive: -5.84%
Fc1ccccc1NC(=S)N1CCN(c2ccccn2)CC1,"inconclusive: 35.5 µM [inhibitor, single point]",
Cc1ccc2[nH]c(=O)c(COC(=O)C3CCCO3)cc2c1 (stereo not given),"inconclusive: 28.2 µM [inhibitor, single point]",
CNC(=O)C12N=CNN=C1N(C)C(=O)N2C (stereo not given),,inactive: 0.702%
Oc1c(/C=N/Nc2cccc3cccnc23)ccc2ccccc12,"inconclusive: 8.91 µM [inhibitor, full curve]",
COc1ccc(C2C=C(C)Nc3nc(SC)nn32)cc1 (stereo not given),"inconclusive: 31.6 µM [inhibitor, partial curve]",
COc1cc2c(cc1OC)C(C1C(=O)CC(C)CC1=O)N(C(=O)CCl)CC2 (stereo not given),"inconclusive: 31.6 µM [inhibitor, partial curve]",
CCCCCCc1ccc(-c2ncc(N)cn2)cc1,"inconclusive: 28.2 µM [inhibitor, single point]",
O=C1CCCCCN1CSc1nc2ccccc2s1,,inactive: -4.33%
